{"source": "the supplement of paper PMC12355420", "note": "Counter-ions that a name gives are not always drawn. The list shows a part of the results. Repeats are few or missing, and single values can be far off.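 Further: primary screen of an FDA-approved drug library in HeLa reporter cells in 96-well format, CellMask signal normalized to DMSO-treated wells set as 1, under 0.5 deemed highly cytotoxic.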", "data": [{"system": "HeLa VPS33A reporter cells", "experiment": "relative cell viability (CellMask signal) vs DMSO (fraction of DMSO); HeLa model of a glycosaminoglycan (GAG) storage disease; KI is knock-in and KO knock-out; SDC1 is syndecan 1; higher = less cytotoxic", "settings": "50 µM; 24 h", "values": [{"smiles": "CN1CCN(c2ccc3nc(-c4c(N)c5c(F)cccc5[nH]c4=O)[nH]c3c2)CC1", "note": "[Dovitinib (TKI258) Lactate]", "relative cell viability": 0.00381}, {"smiles": "COc1cccc2c1C(=O)c1c(O)c3c(c(O)c1C2=O)C[C@@](O)(C(=O)CO)C[C@@H]3O[C@H]1C[C@H](N)[C@@H](O)[C@H](C)O1", "note": "[Epirubicin HCl]", "relative cell viability": 0.00308}, {"smiles": "OC(CNCC(O)C1CCc2cc(F)ccc2O1)C1CCc2cc(F)ccc2O1", "note": "(stereo not given) [Nebivolol]", "relative cell viability": 0.0146}, {"smiles": "C[n+]1cc2c3c(ccc2c2ccc4cc5c(cc4c21)OCO5)OCO3", "note": "[Sanguinarine chloride]", "relative cell viability": 0.00586}, {"smiles": "CC(C)[C@H]1C(=O)N[C@@H](CCCNC(=N)N)C(=O)NCC(=O)N[C@@H](CC(=O)O)C(=O)N[C@H](Cc2ccccc2)C(=O)N1C", "note": "[Cilengitide]", "relative cell viability": 0.0097}, {"smiles": "O=C(c1ccc(OCCN2CCCCC2)cc1)c1c(-c2ccc(O)cc2)sc2cc(O)ccc12", "note": "[Raloxifene HCl]", "relative cell viability": 0.0673}, {"smiles": "CNCCCC12CCC(c3ccccc31)c1ccccc12", "note": "[Maprotiline HCl]", "relative cell viability": 0.0208}, {"smiles": "CN1CCC(=C2c3ccccc3C=Cc3ccccc32)CC1", "note": "[Cyproheptadine hydrochloride]", "relative cell viability": 0.00509}, {"smiles": "OCCN1CCN(CCCN2c3ccccc3Sc3ccc(Cl)cc32)CC1", "note": "[Perphenazine]", "relative cell viability": 0.00482}, {"smiles": "C[C@H]1O[C@@H](O[C@H]2[C@@H](O)C[C@H](O[C@H]3[C@@H](O)C[C@H](O[C@H]4CC[C@@]5(C)[C@H](CC[C@@H]6[C@@H]5C[C@@H](O)[C@]5(C)[C@@H](C7=CC(=O)OC7)CC[C@]65O)C4)O[C@@H]3C)O[C@@H]2C)C[C@H](O)[C@@H]1O", "note": "[Digoxin]", "relative cell viability": 0.0375}, {"smiles": "Clc1ccc(CSC(Cn2ccnc2)c2ccc(Cl)cc2Cl)cc1", "note": "(stereo not given) [Sulconazole Nitrate]", "relative cell viability": 0.00495}, {"smiles": "CNCCC(Oc1ccc(C(F)(F)F)cc1)c1ccccc1", "note": "(stereo not given) [Fluoxetine HCl]", "relative cell viability": 0.00363}, {"smiles": "C=C1/C(=C\\C=C2/CCC[C@]3(C)[C@@H]([C@H](C)/C=C/[C@@H](O)C4CC4)CC[C@@H]23)C[C@@H](O)C[C@@H]1O", "note": "[Calcipotriol]", "relative cell viability": 0.00516}, {"smiles": "C[C@H]1[C@@H](O)O[C@@H]2O[C@@]3(C)CC[C@H]4[C@H](C)CC[C@@H]1[C@@]24OO3", "note": "[Dihydroartemisinin]", "relative cell viability": 0.00735}, {"smiles": "Fc1ccc([C@@H]2CCNC[C@H]2COc2ccc3c(c2)OCO3)cc1", "note": "[Paroxetine HCl]", "relative cell viability": 0.00376}, {"smiles": "CC(=O)O[C@H]1CC[C@@]2(C)C(=CC[C@@H]3[C@@H]2CC[C@]2(C)C(c4cccnc4)=CC[C@@H]32)C1", "note": "[Abiraterone acetate]", "relative cell viability": 0.077}, {"smiles": "C[C@@H](Oc1cc(-c2cnn(C3CCNCC3)c2)cnc1N)c1c(Cl)ccc(F)c1Cl", "note": "[Crizotinib hydrochloride]", "relative cell viability": 0.00386}, {"smiles": "Clc1ccccc1C(c1ccccc1)(c1ccccc1)n1ccnc1", "note": "[Clotrimazole]", "relative cell viability": 0.00394}, {"smiles": "O=C(NC1CCN(CCCCC2(C(=O)NCC(F)(F)F)c3ccccc3-c3ccccc32)CC1)c1ccccc1-c1ccc(C(F)(F)F)cc1", "note": "[Lomitapide]", "relative cell viability": 0.00381}, {"smiles": "CCCCCCCCc1ccc(CCC(N)(CO)CO)cc1", "note": "[Fingolimod (FTY720)]", "relative cell viability": 0.00612}, {"smiles": "CCCCc1oc2ccc(NS(C)(=O)=O)cc2c1C(=O)c1ccc(OCCCN(CCCC)CCCC)cc1", "note": "[Dronedarone HCl]", "relative cell viability": 0.00431}, {"smiles": "CN1CCCC(n2nc(Cc3ccc(Cl)cc3)c3ccccc3c2=O)CC1", "note": "(stereo not given) [Azelastine HCl]", "relative cell viability": 0.00903}, {"smiles": "CC(C)(CO)c1cc2cc(NC(=O)C3(c4ccc5c(c4)OC(F)(F)O5)CC3)c(F)cc2n1C[C@@H](O)CO", "relative cell viability": 0.00576}, {"smiles": "COc1ncc(-c2ccc3nccc(-c4ccnnc4)c3c2)cc1NS(=O)(=O)c1ccc(F)cc1F", "relative cell viability": 0.00953}, {"smiles": "NC(=O)N1CCC(CC(=O)N2CCC([C@H]3c4ncc(Br)cc4CCc4cc(Cl)cc(Br)c43)CC2)CC1", "note": "[Lonafarnib]", "relative cell viability": 0.00872}, {"smiles": "CO/N=C1\\C[C@]2(C[C@@H]3C[C@@H](C/C=C(\\C)C[C@@H](C)/C=C/C=C4\\CO[C@@H]5[C@H](O)C(C)=C[C@@H](C(=O)O3)[C@]45O)O2)O[C@H](/C(C)=C/C(C)C)[C@H]1C", "note": "[Moxidectin]", "relative cell viability": 0.00468}, {"smiles": "CC[C@H](CO)Nc1nc(NCc2ccccc2)c2ncn(C(C)C)c2n1", "note": "[Roscovitine (Seliciclib,CYC202)]", "relative cell viability": 0.0173}, {"smiles": "CCN(CC)CCNC(=O)c1c(C)[nH]c(/C=C2\\C(=O)Nc3ccc(F)cc32)c1C", "note": "[Sunitinib malate]", "relative cell viability": 0.00643}, {"smiles": "Cc1cc(C)c2c(c1)[C@@H](N(Cc1cc(C(F)(F)F)cc(C(F)(F)F)c1)c1nnn(C)n1)CCCN2C[C@H]1CC[C@H](C(=O)O)CC1", "relative cell viability": 0.00343}, {"smiles": "CN1CCC[C@@H]1CCO[C@](C)(c1ccccc1)c1ccc(Cl)cc1", "note": "[Clemastine Fumarate]", "relative cell viability": 0.0125}, {"smiles": "Cc1ccc([C@@H]2O[C@H](CO)[C@@H](O)[C@H](O)[C@H]2O)cc1Cc1ccc(-c2ccc(F)cc2)s1", "note": "[Canagliflozin]", "relative cell viability": 0.0129}, {"smiles": "CNCCC=C1c2ccccc2CCc2ccccc21", "note": "[Nortriptyline (hydrochloride)]", "relative cell viability": 0.00961}, {"smiles": "CCOc1ccc2nc3cc(N)ccc3c(N)c2c1", "note": "[Ethacridine lactate monohydrate]", "relative cell viability": 0.0398}, {"smiles": "COc1cc(Nc2c(C#N)cnc3cc(OCCCN4CCN(C)CC4)c(OC)cc23)c(Cl)cc1Cl", "note": "[Bosutinib (SKI-606)]", "relative cell viability": 0.00454}, {"smiles": "COc1cccc2c1C(=O)c1c(O)c3c(c(O)c1C2=O)C[C@@](O)(C(=O)CO)C[C@@H]3O[C@H]1C[C@H](N)[C@H](O[C@@H]2CCCCO2)[C@H](C)O1", "note": "[Pirarubicin]", "relative cell viability": 0.0208}, {"smiles": "CO[C@H]1C[C@@H]2CC[C@@H](C)[C@@](O)(O2)C(=O)C(=O)N2CCCC[C@H]2C(=O)O[C@H]([C@H](C)C[C@@H]2CC[C@@H](OC(=O)C(C)(CO)CO)[C@H](OC)C2)CC(=O)[C@H](C)/C=C(\\C)[C@@H](O)[C@@H](OC)C(=O)[C@H](C)C[C@H](C)/C=C/C=C/C=C/1C", "note": "[Temsirolimus]", "relative cell viability": 0.00497}, {"smiles": "C[C@@H](Oc1cc(-c2cnn(C3CCNCC3)c2)cnc1N)c1c(Cl)ccc(F)c1Cl", "note": "[(R)-Crizotinib]", "relative cell viability": 0.00374}, {"smiles": "O=C(O[C@H]1CN2CCC1CC2)N1CCc2ccccc2[C@@H]1c1ccccc1", "note": "[Solifenacin succinate]", "relative cell viability": 0.00588}, {"smiles": "C[C@@H](O[C@H]1OCCN(Cc2nn(P(=O)(O)O)c(=O)[nH]2)[C@H]1c1ccc(F)cc1)c1cc(C(F)(F)F)cc(C(F)(F)F)c1", "note": "[Fosaprepitant dimeglumine salt]", "relative cell viability": 0.00413}, {"smiles": "Cc1[nH]c2ccccc2c1CCNCc1ccc(/C=C/C(=O)NO)cc1", "note": "[Panobinostat (LBH589)]", "relative cell viability": 0.00749}]}]}
